From a collection of fitness landscapes (doi:10.1016/j.celrep.2020.107928)
The full ranking holds about 81,000 sequences; the median of “one-hybrid fitness for binding parS DNA” is about -0.17, and the highest 2% start at about 0.51. The list shows a part of the results.

B1: Caulobacter ParB omega fusion; a variant is named by its letters at X, in order, B8GW30 (parent)
chain: MESVVVGEPGMSEGRRGLGRGLSALLGEVDAAPAQAPGEQLGGSREAPIEILQRNPDQPRRTFREEDLEDLSNSIREKGVLQPILVRPSPDTAGEYQIVAGERAWRAAQRAGLKTVPIMVRELDDLAVLEIGIIENVQRADLNVLEEALSYKVLMEKFERTQENIAQTIGKSXSHVANXMRLLXLPDEVQSYLVSGELTAXHARAIAAAADPVALAKQIIEGGLSVRETEALARKAPNLSAGKSKGGRPPRVKDTDTQALESDLSSVLGLDVSIDHRGSTGTLTITYATLEQLDDLCNRLTRGI

Variants of: B1
Assay: one-hybrid fitness for binding parS DNA (scaled: cognate 1, non-cognate 0); higher = stronger binding
Details: with parS DNA site
Procedure, shortened: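 Selection: bacterial one-hybrid in E. coli USO, HIS3 reporter with the site 19 bp from the promoter, 48 hours at 37°C on M9-minus-histidine plus 0.1 mM IPTG and 5 mM 3-AT. Libraries were Caulobacter ParB with four randomised specificity codons, sequenced on Illumina before and after selection. Fitness is the rescaled log change in variant-to-wild-type read ratio, anchored to the cognate and non-cognate sites.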

one-hybrid fitness for binding parS DNA, 0.992:
RLMC

one-hybrid fitness for binding parS DNA, 0.338:
RIEY
RWSY

one-hybrid fitness for binding parS DNA, 1.02:
RAMS

one-hybrid fitness for binding parS DNA, 0.381:
MYYW

one-hybrid fitness for binding parS DNA, 0.271:
RLYH

one-hybrid fitness for binding parS DNA, 0.386:
RHNN

one-hybrid fitness for binding parS DNA, 0.348:
RNCA

one-hybrid fitness for binding parS DNA, ≤ 0.2:
NRQY
PDEN
VETA
KHQI
PTDV
QYGA
LFRN
PEGL
DMEL
SNKS
LGME
PARA
MSQI
PYMS
AKWT
GQHM
PFGY
EAGT
WKYM
LAMS
HLVW
IPVT
DFLL
LWVI
QHFG
THTC
AFSS
QWRT
PTNG
CCSS
RKHP
YSTT
EFTV
PSLV
FPST
SWYM
VDDS
RIMR
ASDI
ATRN
KSLV
TRHC
HWNY
AQTM
RVTE
ERNP
GWRT
DPMS
TNDM
GPVT
NNNG
AGPY
NKAR
ADFY
QYTC
KKQC
VLTP
PGQN
LIGV
SGSS
SACA
MFPE
GWRY
DSYG
DLRF
IPSI
SPDS
GPDI
ALLE
HLPG
HNDS
LNAN
TPEG
KCEG
LATR
NKER
NSFC
TGDM
ARPL
QTKC
KTTS
ISIG
KQTG
CLVK
QRAG
SRYV
LMGR
NLER
QPAV
PSPY
ITPT
SHVI
DSND
ALQS
KNHD
PYEG
PYVT
PRTD
SPNL
YHLF
AMGR
HRFT
QVQM
PVYT
LQKC
VNSF
WIRC
IWAR
SYLP
LFRG
VLNV
ALGT
GWRH
GCGS
NDFI
GSRY
FRKA
HIFT
QRIK
QFSL
AALK
QHPH
DHTT
EIHR
QVMP
PQGA
QQHA
HIWT
GDRL
TAWL
NLLT
LIQG
GVQG
NSRL
TCHR
NTCM
ALHQ
SSPS
DGIT
SAMI
MTGG
NPKT
MMAL
ARNC
INNT
CCSA
SLWI
TTLE
SKYG
PLRQ
PHDL
PKAY
DLLW
PWYS
PLMK
AWPV
CHGG
MINR
NEEI
NCLA
SCWT
WQLA
QRSW
SQYS
QPKN
YGYN
SQTV
WTHK
WHAK
VTLP
HQNQ
YFEC
YPPR
PRDT
TDDN
LRDG
YLCC
AYLY
WLCL
QMWE
QHTD
PKYY
LDGS
SRFA
DHGC
PLQE
VPEY
DARC
LRRT
LSHG
YRRV
GYID
CYDG
QNWN
EIPS
WGAF
INDN
RLWK
CSER
IRLG
HSFS
PLPD
PYPH
QKPR
KRIW
GANF
MWAG
KRCM
FYWG
FCPL
TADH
YGWR
AWAL
YKAS
DHHR
CAGG
WQMV
HGYW
PKRD
SAYG
HVQR
CGLY
AASV
WVMW
HHPM
SHAW
KTNL
TALW
TYGA
VPRP
TLDC
EAWM
STIT
TMMT
RYAV
LITW
YLAI
RELN
QARE
QISQ
LNVN
RCVR
RMFD
GKME
WVMT
LKSL
SKPT
GCRA
HHRA
QKVT
CHAV
HEPS
VHIL
HSSS
HTVR
TQRC
EYPT
WAWW
QFPR
SILW
AHGV
TFNK
YIPL
SRMG
KIAR
QVTN
HWAN
SNVL
PGNT
LQAW
IESS
ASGK
CSLY
EYRR
QGAD
GGQL
TYDW
HHNG
DATT
TDMF
TGYH
HGGG
FFLI
SLRA
ADDG
AEKG
GWLP
RSFK
GFMT
ARLR

one-hybrid fitness for binding parS DNA, 0.92:
RTGS

one-hybrid fitness for binding parS DNA, 0.452:
RVAN

one-hybrid fitness for binding parS DNA, 0.285:
RKVM

one-hybrid fitness for binding parS DNA, 0.469:
RQQN

one-hybrid fitness for binding parS DNA, 0.23:
RLYR

one-hybrid fitness for binding parS DNA, 0.212:
VESV

one-hybrid fitness for binding parS DNA, 0.596:
RWYT

one-hybrid fitness for binding parS DNA, 0.356:
RKKN
